According to the supplement of paper PMC12889115:
Some of the results follow. No stated cut-off is given here; in the data, active = 25% or less and inactive = the rest. Many values rest on one well or one pass, so single values are uncertain.

Tests used:
[1] = tested on: Salmonella enterica serovar Typhimurium SL1344; test: bacterial growth OD600 after 18 h in MHB with 0.5 µg/mL polymyxin B; higher = more bacterial growth (less inhibition); details: 25 µM; polymyxin B 0.5 µg/mL; system: broth
Description: (§1)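 Secondary screen of the 553 primary hits at 25 µM. (i) S. Typhimurium SL1344 grown in Mueller-Hinton broth with 0.5 µg/mL polymyxin B, OD600 read after 18 h. (ii) SAFIRE assay: RAW 264.7 macrophages infected with S. Typhimurium sifB::gfp (MOI 30); compound added 2 h post-infection; cells fixed at 18 h; GFP-positive pixel fraction per macrophage imaged by confocal microscopy and expressed as % of DMSO control.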

[2] = tested on: Salmonella enterica serovar Typhimurium SL1344; test: intramacrophage bacterial GFP load (SAFIRE), percent of DMSO control (% of DMSO); higher = more intracellular bacteria (less inhibition); details: 25 µM; system: infected RAW 264.7 macrophages
Description: as §1
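Wherever bacterial growth OD600 after 18 h in MHB with 0.5 µg/mL polymyxin B is given: polymyxin B level opens the outer membrane while sparing the inner membrane, with novobiocin wells as reference growth inhibitor.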
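Wherever intramacrophage bacterial GFP load (SAFIRE), percent of DMSO control is given: compounds tested were the hits of an earlier 50 µM broth growth screen of a drug-like diversity library run with polymyxin B.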

SMILES	bacterial growth OD600 [1]	intramacrophage bacterial GFP load [2]
CCCCN(Cc1ccccc1)C(=O)CCC1(Cc2ccc(SC)cc2)CCC(=O)N1 (stereo unspecified)	0.003	inactive: 85.2
O=C(c1ccsc1)N1CCc2[nH]nc(-c3ccc(F)c(F)c3)c2C1	0.005	inactive: 182
O=C(C#Cc1ccccc1)N1CCC(C2(c3cccnc3)NC(=O)N(CCc3cccs3)C2=O)CC1 (stereo unspecified)	0.387	inactive: 147
CSc1ccc(C(=O)N2CCC(C(Cc3ccc(F)cc3F)N(C)C(=O)C3CC3)CC2)cc1 (stereo unspecified)	-0.015	active: 10.3
COCCc1noc(-c2ccc(NC3CCCc4ccccc43)nc2)n1 (stereo unspecified)	0.001	inactive: 102
Cc1nc(N2CCC(C(=O)N3CC[C@@H]4CCCC[C@H]4C3)CC2)nc2cc(S(C)(=O)=O)ccc12	-0.004	inactive: 57
Cc1ccnn1CC(=O)N(Cc1ccncc1)Cc1cccc(OCCc2ccc(F)cc2)c1	0	inactive: 58.7
OC(CCc1ccccc1)c1ccc2c(c1)CN(Cc1cccc3c1OCO3)CCO2 (stereo unspecified)	-0.005	inactive: 58.1
O=C(NCC[C@@H]1C[C@@H]2C=C[C@H]1C2)c1cccc(OC2CCN(C(=O)C3CC3)CC2)c1	0	inactive: 35.9
CCOC(=O)N1CCC(N2Cc3cc(C)ccc3OC(c3ccsc3)C2)CC1 (stereo unspecified)	0.187	inactive: 56.1
CCCc1ccc2oc(C(=O)N3CCCC(COC)C3)c(C)c2c1 (stereo unspecified)	0.002	inactive: 53.7
Cc1c(C(=O)NCc2ccc(N3CCOCC3)cc2)oc2c(F)cccc12	0.166	inactive: 79.4
COc1ccccc1-c1cn2c(C(=O)N3CCCCC3c3ccccn3)csc2n1 (stereo unspecified)	0.005	inactive: 118
CN(Cc1ccn[nH]1)C(=O)c1ccc2oc(-c3ccc(C(F)(F)F)cc3)nc2c1	0	inactive: 105
COc1ccc(OC)c(-c2cc(Cl)c3c(c2)CC(CNC(=O)c2cc(C)oc2C)O3)c1 (stereo unspecified)	0.003	inactive: 173
COc1ccc(C)cc1S(=O)(=O)N1CCC(CO)(Cc2cccc(C(F)(F)F)c2)CC1	-0.016	inactive: 105
CCOC(=O)C1(CCCc2ccccc2)CCN(C(=O)c2ccc(COC)o2)CC1	0.001	active: 17.1
O=C1NC(CC(=O)N(Cc2ccncc2)Cc2cccc(OCCc3ccc(F)cc3)c2)c2ccccc21 (stereo unspecified)	-0.009	inactive: 50.6
Cc1nc(C(=O)NCc2nc(-c3ccccc3NC(=O)CC3CCCC3)oc2C)cs1	-0.002	inactive: 130
O=C(c1ccc2c(c1)OCO2)C1CCCN(C(=O)c2csc(-c3cccs3)n2)C1 (stereo unspecified)	0.003	inactive: 152
CCOC(=O)C1(Cc2ccccc2F)CCCN(C(=O)c2cc(OC)cc(OC)c2)C1 (stereo unspecified)	0.273	inactive: 54.3
O=C1CCC(CCNCc2cc3c(cc2Cl)OCO3)N1CC1C2CC3CC(C2)CC1C3 (stereo unspecified)	0.048	active: 0.51
Cc1c(CN2CCOc3ccc(C4=Cc5ccccc5CC4)cc3C2)c(=O)n(-c2ccccc2)n1C	-0.013	active: 1.2
O=C(c1ccc(N2CCOCC2)cc1)N(Cc1ccncc1)Cc1cccc(OCCc2ccc(F)cc2)c1	-0.008	inactive: 71.7
COCc1ccc(C(=O)N2CCc3c([nH]c4ccccc34)C2c2cccc(C)n2)o1 (stereo unspecified)	0.003	inactive: 135
CC(NC(=O)CCc1ccccc1)c1nnc2n1CCN(Cc1ccc3c(c1)Cc1ccccc1-3)CC2 (stereo unspecified)	-0.006	inactive: 34.7
Cc1ccccc1CN1C[C@@H]2C[C@@H](c3cc(CC(C)C)[nH]n3)N3CCC[C@@]23C1=O	0.42	active: 8.72
O=C(CN1CCOC1=O)N1CCCC(CCc2cccc(C(F)(F)F)c2)C1 (stereo unspecified)	0.008	inactive: 62.9
